# Test system: New Zealand White rabbits
# Conditions: rabbit, in vivo
structure (smiles),measurement,value
"C[C@@H]1C[C@H]2[C@@H]3CCC4=CC(=O)C=C[C@]4(C)[C@@]3(F)[C@@H](O)C[C@]2(C)[C@@]1(O)C(=O)COP(=O)(O)O [DSP, dexamethasone sodium phosphate]",body weight change,no significant weight changes

# Reference: patent publication US20190105194A1, “METHODS OF TREATING A SUBJECT WITH AN OCULAR CONDITION RESPONSIVE TO STEROID THERAPY” (Aciont Inc., priority 2017, published 2019)
